# Measurements as given in the supplement of paper PMC8728848.
# This is one part of the list.
# B1: CPA (Cicer arietinum) (protein)
# chain: MAFSYLNLVLVTLTTLFFLQTTKVKSQKSVSFHITNFTISRPSITLQGTAEFLPNVLLLNDIEHPVFVVGRALYSKPITLWNNKTGKVASFVTSFTFDVQDLKKTVPGHGLVFFLAPSGSEIPFSSDGGNLGVVDGKNAFNRFVGVEFDNFVNSWDPKYSHVGINVNSLISTKTVKWNRVSGELVKVSIVYDSVSTTLTVIVTYKNGQISILSQLVDLKAVLPDTVNIGFSASTTLVSPRQLHNIHSWSFTSTFET
# Experiments:
# Experiment in all cases: glycan array binding signal (z-score within array); higher = stronger binding
# Conditions in all cases: glycan notation: IUPAC condensed, linker removed
# [1] = target: GlcNAc(b1-3)[GlcNAc(b1-4)][GlcNAc(b1-6)]GlcNAc
# Outline: (§1)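 Columns mapping to the same glycan were averaged after glycan names were converted to IUPAC-condensed notation. The data come from 3228 arrays in the Consortium for Functional Glycomics database, limited to those with an available protein sequence. Binding is reported as a within-array Z-score averaged across arrays of one protein sequence and across linkers.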
# [2] = target: GlcNAc(b1-3)[GlcNAc(b1-6)]Gal(b1-4)GlcNAc
# Outline: as §1
# [3] = target: GlcNAc(b1-3)[GlcNAc(b1-6)]GalNAc
# Outline: as §1
# [4] = target: GlcNAc(b1-4)Gal(b1-4)GlcNAc
# Outline: as §1
# GlcNAc(b1-4)GlcNAc = target: GlcNAc(b1-4)GlcNAc
# Outline: as §1
# [5] = target: GlcNAc(b1-4)GlcNAc(b1-4)GlcNAc
# Outline: as §1
# [6] = target: GlcNAc(b1-4)GlcNAc(b1-4)GlcNAc(b1-4)GlcNAc(b1-4)GlcNAc
# Outline: as §1
# [7] = target: GlcNAc(b1-4)GlcNAc(b1-4)GlcNAc(b1-4)GlcNAc(b1-4)GlcNAc(b1-4)GlcNAc
# Outline: as §1
# [8] = target: GlcNAc(b1-4)[GlcNAc(b1-6)]GalNAc
# Outline: as §1
# [9] = target: GlcNAc(b1-6)Gal(b1-4)GlcNAc
# Outline: as §1
# GlcNAc(b1-6)GalNAc = target: GlcNAc(b1-6)GalNAc
# Outline: as §1
# [10] = target: GlcNAc6S(b1-3)Gal(b1-4)GlcNAc
# Outline: as §1
# Kdn(a2-3)Gal(b1-3)GalNAc = target: Kdn(a2-3)Gal(b1-3)GalNAc
# Outline: as §1
# Kdn(a2-3)Gal(b1-3)GlcNAc = target: Kdn(a2-3)Gal(b1-3)GlcNAc
# Outline: as §1
# Kdn(a2-3)Gal(b1-4)Glc = target: Kdn(a2-3)Gal(b1-4)Glc
# Outline: as §1
# Kdn(a2-3)Gal(b1-4)GlcNAc = target: Kdn(a2-3)Gal(b1-4)GlcNAc
# Outline: as §1
# [11] = target: Kdn(a2-3)Gal(b1-4)[Fuc(a1-3)]GlcNAc
# Outline: as §1
# Kdn(a2-6)Gal(b1-4)GlcNAc = target: Kdn(a2-6)Gal(b1-4)GlcNAc
# Outline: as §1
# [12] = target: Man(a1-2)Man(a1-2)Man(a1-3)Man
# Outline: as §1
# [13] = target: Man(a1-2)Man(a1-2)Man(a1-6)[Man(a1-3)]Man
# Outline: as §1
# Man(a1-2)Man(a1-3)Man = target: Man(a1-2)Man(a1-3)Man
# Outline: as §1
# [14] = target: Man(a1-2)Man(a1-3)[Man(a1-2)Man(a1-6)]Man
# Outline: as §1
# [15] = target: Man(a1-2)Man(a1-3)[Man(a1-2)Man(a1-6)]Man(a1-6)[Man(a1-2)Man(a1-2)Man(a1-3)]Man
# Outline: as §1
# [16] = target: Man(a1-2)Man(a1-3)[Man(a1-2)Man(a1-6)]Man(a1-6)[Man(a1-2)Man(a1-2)Man(a1-3)]Man(b1-4)GlcNAc(b1-4)GlcNAc
# Outline: as §1
# [17] = target: Man(a1-2)Man(a1-3)[Man(a1-6)]Man(a1-6)[Man(a1-2)Man(a1-3)]Man(b1-4)GlcNAc(b1-4)GlcNAc
# Outline: as §1
# [18] = target: Man(a1-2)Man(a1-6)[Man(a1-3)]Man(a1-6)[Man(a1-2)Man(a1-2)Man(a1-3)]Man
# Outline: as §1
# [19] = target: Man(a1-2)Man(a1-6)[Man(a1-3)]Man(a1-6)[Man(a1-2)Man(a1-2)Man(a1-3)]Man(b1-4)GlcNAc(b1-4)GlcNAc
# Outline: as §1
# Man(a1-3)[Man(a1-6)]Man = target: Man(a1-3)[Man(a1-6)]Man
# Outline: as §1
# [20] = target: Man(a1-3)[Man(a1-6)]Man(a1-6)[Man(a1-2)Man(a1-3)]Man(b1-4)GlcNAc(b1-4)GlcNAc
# Outline: as §1
# [21] = target: Man(a1-3)[Man(a1-6)]Man(a1-6)[Man(a1-3)]Man
# Outline: as §1
# [22] = target: Man(a1-3)[Man(a1-6)]Man(a1-6)[Man(a1-3)]Man(b1-4)GlcNAc(b1-4)GlcNAc
# Outline: as §1
# [23] = target: Man(a1-3)[Man(a1-6)]Man(b1-4)GlcNAc(b1-4)GlcNAc
# Outline: as §1
# [24] = target: Man(a1-3)[Man(a1-6)]Man(b1-4)GlcNAc(b1-4)[Fuc(a1-6)]GlcNAc
# Outline: as §1
# Man(a1-6)Man = target: Man(a1-6)Man
# Outline: as §1
# Man(b1-4)GlcNAc = target: Man(b1-4)GlcNAc
# Outline: as §1
# MurNAc(b1-4)GlcNAc = target: MurNAc(b1-4)GlcNAc
# Outline: as §1
# Neu5Ac(a2-3)Gal = target: Neu5Ac(a2-3)Gal
# Outline: as §1
# [25] = target: Neu5Ac(a2-3)Gal(b1-3)GalNAc
# Outline: as §1
binder,measurement,setting,value
B1,glycan array binding signal (z-score),[1],-0.57
same,glycan array binding signal (z-score),[2],0.167
same,glycan array binding signal (z-score),[3],-0.586
same,glycan array binding signal (z-score),[4],-0.734
same,glycan array binding signal (z-score),GlcNAc(b1-4)GlcNAc,1.55
same,glycan array binding signal (z-score),[5],1.39
same,glycan array binding signal (z-score),[6],1.45
same,glycan array binding signal (z-score),[7],2.35
same,glycan array binding signal (z-score),[8],0.015
same,glycan array binding signal (z-score),[9],0.404
same,glycan array binding signal (z-score),GlcNAc(b1-6)GalNAc,0.357
same,glycan array binding signal (z-score),[10],-0.056
same,glycan array binding signal (z-score),Kdn(a2-3)Gal(b1-3)GalNAc,0.091
same,glycan array binding signal (z-score),Kdn(a2-3)Gal(b1-3)GlcNAc,-0.656
same,glycan array binding signal (z-score),Kdn(a2-3)Gal(b1-4)Glc,-0.762
same,glycan array binding signal (z-score),Kdn(a2-3)Gal(b1-4)GlcNAc,-0.585
same,glycan array binding signal (z-score),[11],0.215
same,glycan array binding signal (z-score),Kdn(a2-6)Gal(b1-4)GlcNAc,-0.065
same,glycan array binding signal (z-score),[12],-0.392
same,glycan array binding signal (z-score),[13],-0.38
same,glycan array binding signal (z-score),Man(a1-2)Man(a1-3)Man,-0.559
same,glycan array binding signal (z-score),[14],-0.461
same,glycan array binding signal (z-score),[15],-0.462
same,glycan array binding signal (z-score),[16],0.049
same,glycan array binding signal (z-score),[17],-0.274
same,glycan array binding signal (z-score),[18],-0.429
same,glycan array binding signal (z-score),[19],0.228
same,glycan array binding signal (z-score),Man(a1-3)[Man(a1-6)]Man,-0.635
same,glycan array binding signal (z-score),[20],4.19
same,glycan array binding signal (z-score),[21],-0.493
same,glycan array binding signal (z-score),[22],-0.545
same,glycan array binding signal (z-score),[23],-0.234
same,glycan array binding signal (z-score),[24],-0.1
same,glycan array binding signal (z-score),Man(a1-6)Man,-0.467
same,glycan array binding signal (z-score),Man(b1-4)GlcNAc,-0.504
same,glycan array binding signal (z-score),MurNAc(b1-4)GlcNAc,0.406
same,glycan array binding signal (z-score),Neu5Ac(a2-3)Gal,-0.529
same,glycan array binding signal (z-score),[25],-0.482
